Measurements reported in PubChem BioAssay AID504832 (National Center for Advancing Translational Sciences (NCATS), 2011).
Hit rate of the full screen: of about 310,000 compounds, about 18,000 (5.8%) were called active. The inconclusive results got no clear call from the source; some entries with a clear call stand among them for comparison. Calls follow the shape of the dose curve; as a rule, active = well fitted inhibition curve with a large enough effect; inconclusive = small, poorly fitted or top-dose-only effect, or another doubt; inactive = no such curve, though single readings can be large or run the other way. Potencies of inconclusive entries are left out as doubtful fits.

Assay: Primary qHTS for delayed death inhibitors of the malarial parasite plastid, 48 hour incubation
Conditions: P. falciparum luciferase growth in erythrocytes; series mostly up to 28.7 µM
In short: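 Read-out is firefly luciferase luminescence from an integrated reporter in P. falciparum, so falling signal marks reduced parasite growth. Infected erythrocytes were at 2% hematocrit and 0.1% parasitemia (final) in Albumax-supplemented RPMI 1640.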
Potency is read from the fitted curve at half-maximal effect; tags tell the direction and shape of the fitted curve.

Structure (SMILES)	Potency
COc1ccc(S(=O)(=O)Nc2cc3c4c(c2)CCN4C(=O)CC3)cc1	inconclusive [inhibitor, partial curve, poor fit]
CC(C)OCCCNc1ncnc2c1[nH]c1ccccc12	active: 5.86 µM
O=C(c1ccccc1)N(C(=O)c1ccccc1)c1ncnc2c1C(c1ccccc1)c1c(ccc3ccccc13)O2 (stereo not given)	inconclusive [inhibitor, single point]
Nc1nc(Nc2ccccc2)nc(NC2CCCCC2)c1[N+](=O)[O-]	inconclusive [inhibitor, partial curve, poor fit]
O=C(NCC(O)c1ccccc1)c1ccc(Cl)c(S(=O)(=O)N2CCCCC2)c1 (stereo not given)	inconclusive [inhibitor, single point]
Fc1ccc(C(c2nnnn2C2CCCCC2)N2CCCC2)cc1 (stereo not given)	active: 13.1 µM
COc1ccc(N=C2C(=Nc3ccc(OC)cc3)N(c3ccccc3)C(=S)N2C(=O)c2ccc(Cl)cc2)cc1	inconclusive [inhibitor, partial curve, poor fit]
Cn1cc(-c2cc(C(=O)O)on2)cn1	inconclusive [inhibitor, single point]
O=C(COc1ccccc1-c1ccccc1)N/N=C/c1ccccn1	inconclusive [inhibitor, single point]
COc1cccc(CNC(=O)CCC2CCCN(C(=O)C3CCOCC3)C2)c1 (stereo not given)	inactive
Cc1ccc(S(=O)(=O)N(C)c2nonc2C)cc1	inconclusive [inhibitor, single point]
COC(=O)[C@@H]1C(c2ccccc2)(c2ccccc2)[C@@]1(C)C(=O)OC	inconclusive [inhibitor, partial curve, poor fit]
CCOC(=O)c1c(C)nc2sc3c(=O)n(-c4ccc(OC)cc4)nnc3c2c1-c1ccc(OC)cc1	inconclusive [inhibitor, single point]
Cn1c(=O)cc(OCCCC(=O)N2CCN(Cc3ccc4c(c3)OCO4)CC2)c2ccccc21	inconclusive [inhibitor, partial curve]
COc1cccc(CN(C(=O)c2cccs2)C2CCS(=O)(=O)C2)c1 (stereo not given)	inactive
Cc1c(CCOC(=O)C23CC4(C)CC(C)(CC(C)(C4)C2)C3)sc[n+]1CC(=O)c1ccccc1	inconclusive [inhibitor, single point]
O=C(CCc1nc2ccccc2c(=O)[nH]1)Nc1cc(C(F)(F)F)ccc1N1CCCC1	inconclusive [inhibitor, single point]
O=C(N/N=C/c1ccc(O)cc1O)c1ccc(NC(=O)C2CCCCC2)cc1	inconclusive [inhibitor, single point]
COc1ccc(-c2csc3ncnc(N4CCN(c5cccc(Cl)c5)CC4)c23)cc1	inconclusive [inhibitor, single point]
COc1ccc(OC)c(C(=O)/C=C/c2ccccc2C(F)(F)F)c1	inconclusive [inhibitor, single point]
CC(NC(=O)NC12CC3CC(CC(C3)C1)C2)C1CCCO1 (stereo not given)	inconclusive [inhibitor, partial curve]
Cc1ccc(S(=O)(=O)Nc2cc(Cl)c(O)c3ncccc23)cc1	active: 7.38 µM

Structure (SMILES)	Potency
CCC(NC(=O)c1ccccc1NC(=O)c1ccco1)C(=O)NNC(=O)c1ccncc1 (stereo not given)	inconclusive [inhibitor, partial curve, poor fit]
CCOC(=O)c1c(C)n(-c2ccc(OC)cc2)c2ccc(O)c(CN(C)C)c12	inconclusive [inhibitor, single point]
COc1ccc(C(=O)CSc2nnc3n2CCCN3C(=O)Nc2ccccc2)cc1	inactive
O=C(Nc1ccc(-n2cccn2)cc1)C1CCN(Cc2ccccn2)CC1	inconclusive [inhibitor, partial curve, poor fit]
CCC1(C)Cc2c(sc3nc(SCC(=O)c4ccccc4)[nH]c(=O)c23)CO1 (stereo not given)	inactive
CCCCNC(=S)N(CCN(CC)CC)Cc1cc2cc3c(cc2[nH]c1=O)OCCO3	inconclusive [inhibitor, partial curve, poor fit]
COc1ccc(-n2c(SCC(=O)Nc3cccc(S(N)(=O)=O)c3)nc3ccccc3c2=O)cc1OC	inconclusive [inhibitor, partial curve, poor fit]
COc1ccc(C(=O)n2nc(C)c(Br)c2C)cc1	inconclusive [inhibitor, full curve, poor fit]
COC(=O)c1ccccc1NC(=O)CSc1nnc(COc2cccc(OC)c2)n1C	inconclusive [inhibitor, partial curve]
Cc1sc(NC(=O)/C=C/C(=O)O)c(C(N)=O)c1-c1ccc(C(C)(C)C)cc1	active: 8.28 µM
Cc1cc(C)nc(SCC(=O)Oc2ccc3oc(=O)cc(C)c3c2)n1	inactive
CC(=O)Nc1ccc(S(=O)(=O)NCC2CCC(C(=O)NCCCN(C)Cc3ccccc3)CC2)cc1 (stereo not given)	inconclusive [inhibitor, single point]
Cc1ccc(C(=O)N/C(=C\c2ccc(F)cc2)C(=O)NCc2ccncc2)cc1	inconclusive [inhibitor, partial curve, poor fit]
O=C(CN(Cc1ccco1)C(=O)Cn1nnc(-c2cccs2)n1)NCC1CCCO1 (stereo not given)	inactive
S=C(Nc1ccccc1)N1CCCCCCC1	inactive
CS(=O)(=O)Nc1ccc(C2=NN(C(=O)c3ccccc3)C(c3cccs3)C2)cc1 (stereo not given)	inconclusive [inhibitor, partial curve]
CCN1CCN(S(=O)(=O)c2ccc(Cl)c(C(=O)Nc3ccccc3N3CCCCC3)c2)CC1	inconclusive [inhibitor, partial curve, poor fit]
C[N+](C)(CCOc1ccccc1)Cc1ccccc1 (tested in a mixture with another compound)	active: 10.4 µM
CC(O)CNc1nc2c(c(=O)n(Cc3ccc(Cl)cc3)c(=O)n2C)n1C (stereo not given)	inconclusive [inhibitor, partial curve, poor fit]
CC(C)COc1ccc(CSCCNC(=S)Nc2ccccc2)cc1	inconclusive [inhibitor, partial curve, poor fit]
CCCN1C(=O)COc2ccc(-c3n[nH]c(=O)c4ccccc34)cc21	inactive
CN(C)S(=O)(=O)c1ccc(C(=O)Oc2cc(=O)[nH]c3ccccc23)cc1	inactive

Structure (SMILES)	Potency
C=CCn1c(SCC(=O)N2CCCC2)nc2scc(-c3cccs3)c2c1=O	inconclusive [inhibitor, partial curve]
CCCOc1ccccc1C(=O)N(Cc1ccc(C)o1)C1CCS(=O)(=O)C1 (stereo not given)	inactive
NS(=O)(=O)c1cccc(NC(=O)c2cc(-c3cccs3)nc3ccccc23)c1	inconclusive [inhibitor, single point]
O=C(NCC1CCCO1)c1ccccc1NS(=O)(=O)c1cccs1 (stereo not given)	inactive
CC(CC(=O)N1CCN(c2cccc(Cl)c2)CC1)S(=O)(=O)c1ccc2c(c1)NC(=O)CO2 (stereo not given)	inconclusive [inhibitor, partial curve, poor fit]
CCOC(=O)C1=C(C)N=c2s/c(=C/c3cccc([N+](=O)[O-])c3O)c(=O)n2C1c1cc(OC)c(OC)c(OC)c1 (stereo not given)	active: 1.04 µM
COc1ccc(NS(=O)(=O)c2ccc(N3CCOCC3)c(NC(=O)c3ccc(F)cc3)c2)cc1	inactive
CSc1nc2ccc(NC(=O)c3ccc(=O)[nH]c3)cc2s1	inconclusive [inhibitor, single point]
O=C(CC1S/C(=N/N=C/c2cccs2)NC1=O)Nc1ccccc1F (stereo not given)	inconclusive [inhibitor, full curve, poor fit]
O=C(O)CCN1CCc2ccccc2C1c1ccncc1 (stereo not given)	inactive
CCOc1cc(S(=O)(=O)N(CC)CC)ccc1Br	inconclusive [inhibitor, partial curve, poor fit]
Cc1cc2cc(CNC(=O)c3ccc(S(=O)(=O)N4CCOCC4)cc3)ccc2[nH]1	active: 13.1 µM
COc1ccc(-c2csc(NC(=O)CSc3nnc(Nc4ccccc4C)s3)n2)cc1	inconclusive [inhibitor, partial curve, poor fit]
O=C(C1CC1)N1CCN(c2ccc([N+](=O)[O-])cc2-n2cccc2)CC1	inactive
Cc1cccc(-c2nsc(SCC(=O)N3CCCC3)n2)c1	inactive
NS(=O)(=O)c1ccc(CCNC(c2ccccc2)c2ccccc2)cc1	inactive
Cc1ccc(NC(=O)c2nc[nH]c2C(=O)N[C@@H](C)C(=O)OC(C)(C)C)cc1	inconclusive [inhibitor, single point]
CNc1ccc2oc(C[C@H]3O[C@@]4(CC[C@H]3C)O[C@H]([C@H](C)C(=O)c3ccc[nH]3)[C@H](C)C[C@H]4C)nc2c1C(=O)O	active: 0.928 µM
CC(OC(=O)c1ccc(Cl)c(S(=O)(=O)N2CCCC2)c1)C(=O)NC1CCCCC1C (stereo not given)	inconclusive [inhibitor, partial curve]
Cc1ccccc1NC(=O)Cc1nc(CN(C)CC(=O)Nc2cccc(F)c2)cs1	inconclusive [inhibitor, single point]
COC(=O)c1ccc(Cn2nnc3c(=O)[nH]c(C4CCCN(S(=O)(=O)c5cccc(Cl)c5)C4)nc32)cc1 (stereo not given)	inconclusive [inhibitor, full curve]
